Reference: the supplement of paper PMC9151546
Repeats are few or missing, and single values can be far off.

Key:
CHO-K1 [1] = test: relative survival (nuclei to bead ratio vs DMSO control) (% of vehicle control); higher = more surviving cells
Description: (§1)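 Flow-cytometric in vitro micronucleus assay (Litron MicroFlow) in CHO-K1 cells in 96-well plates, 19 concentrations (4.5-200 µM, n=1 per concentration). Without S9, cells were exposed for 24 h and sampled at 48 h. With Aroclor 1254-induced rat liver S9, cells were exposed for 3-4 h and sampled at 27-28 h. Read-outs are %MN and %hypodiploid nuclei relative to nucleated events, and relative survival as the nuclei-to-bead ratio versus the 1% DMSO vehicle control (x100).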

CHO-K1 [2] = test: micronucleus frequency (% of nucleated events); higher = more micronuclei (genotoxic)
CHO-K1 [3] = test: hypodiploid nuclei frequency (% of nucleated events); higher = more hypodiploid events (aneugenic)
Description: as §1
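Throughout, for hypodiploid nuclei frequency (% of nucleated events): hypodiploid nuclei gated on a flow cytometer with 488 nm excitation after SYTOX Green staining, cultures at 37 °C, positive controls vinblastine without S9 and cyclophosphamide with S9.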
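Throughout, for micronucleus frequency (% of nucleated events): cells lysed with nuclei stained by SYTOX Green, then micronucleus-gated events counted against nucleated events by flow cytometry with 488 nm excitation.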
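Throughout, for relative survival (nuclei to bead ratio vs DMSO control): Lysed-cell nuclei stained with SYTOX Green and counted against counting beads by flow cytometry at 488 nm excitation, with vinblastine (no S9) and cyclophosphamide (plus S9) as positive controls.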

COc1ccc2c(c1)c(CC(=O)O)c(C)n2C(=O)c1ccc(Cl)cc1 [Indomethacin]
Details	hypodiploid nuclei frequency, CHO-K1 [3] [%]	micronucleus frequency, CHO-K1 [2] [%]	relative survival, CHO-K1 [1]
concentration: 4.5 (µM), S9 metabolic activation: with S9, exposure time: 3-4 hours	0.16	1.2	109
concentration: 4.5 (µM), S9 metabolic activation: without S9, exposure time: 24 hours	0.62	1.9	113
concentration: 5.63 (µM), S9 metabolic activation: with S9, exposure time: 3-4 hours	0.22	1.16	108
concentration: 5.63 (µM), S9 metabolic activation: without S9, exposure time: 24 hours	0.42	1.78	112
concentration: 7.04 (µM), S9 metabolic activation: with S9, exposure time: 3-4 hours	0.16	1.32	123
concentration: 7.04 (µM), S9 metabolic activation: without S9, exposure time: 24 hours	0.54	1.5	92.8
concentration: 8.8 (µM), S9 metabolic activation: with S9, exposure time: 3-4 hours	0.2	1.14	140
concentration: 8.8 (µM), S9 metabolic activation: without S9, exposure time: 24 hours	0.44	1.46	130
concentration: 11 (µM), S9 metabolic activation: with S9, exposure time: 3-4 hours	0.18	0.98	137
concentration: 11 (µM), S9 metabolic activation: without S9, exposure time: 24 hours	0.52	1.62	124
concentration: 13.7 (µM), S9 metabolic activation: with S9, exposure time: 3-4 hours	0.16	1.06	152
concentration: 13.7 (µM), S9 metabolic activation: without S9, exposure time: 24 hours	0.46	1.12	117
concentration: 17.2 (µM), S9 metabolic activation: with S9, exposure time: 3-4 hours	0.16	1.42	176
concentration: 17.2 (µM), S9 metabolic activation: without S9, exposure time: 24 hours	0.5	1.24	107
concentration: 21.5 (µM), S9 metabolic activation: with S9, exposure time: 3-4 hours	0.24	1.44	158
concentration: 21.5 (µM), S9 metabolic activation: without S9, exposure time: 24 hours	0.66	1.32	108
concentration: 26.8 (µM), S9 metabolic activation: with S9, exposure time: 3-4 hours	0.24	1.1	112
concentration: 26.8 (µM), S9 metabolic activation: without S9, exposure time: 24 hours	0.56	1.4	117
concentration: 33.6 (µM), S9 metabolic activation: with S9, exposure time: 3-4 hours	0.16	1.16	97.9
concentration: 33.6 (µM), S9 metabolic activation: without S9, exposure time: 24 hours	0.44	1.56	96.3
concentration: 41.9 (µM), S9 metabolic activation: with S9, exposure time: 3-4 hours	0.3	1.08	116
concentration: 41.9 (µM), S9 metabolic activation: without S9, exposure time: 24 hours	0.58	2.02	113
concentration: 52.4 (µM), S9 metabolic activation: with S9, exposure time: 3-4 hours	0.2	1.36	111
concentration: 52.4 (µM), S9 metabolic activation: without S9, exposure time: 24 hours	0.46	1.32	114
concentration: 65.5 (µM), S9 metabolic activation: with S9, exposure time: 3-4 hours	0.2	1.58	98.8
concentration: 65.5 (µM), S9 metabolic activation: without S9, exposure time: 24 hours	0.6	2.02	117
concentration: 81.9 (µM), S9 metabolic activation: with S9, exposure time: 3-4 hours	0.12	0.88	114
concentration: 81.9 (µM), S9 metabolic activation: without S9, exposure time: 24 hours	0.62	1.56	134
concentration: 102 (µM), S9 metabolic activation: with S9, exposure time: 3-4 hours	0.18	1.18	124
concentration: 102 (µM), S9 metabolic activation: without S9, exposure time: 24 hours	0.68	1.5	96.9
concentration: 128 (µM), S9 metabolic activation: with S9, exposure time: 3-4 hours	0.14	0.98	118
concentration: 128 (µM), S9 metabolic activation: without S9, exposure time: 24 hours	0.62	1.82	135
concentration: 160 (µM), S9 metabolic activation: with S9, exposure time: 3-4 hours	0.16	1.76	105
concentration: 160 (µM), S9 metabolic activation: without S9, exposure time: 24 hours	0.76	1.52	98.6
concentration: 200 (µM), S9 metabolic activation: with S9, exposure time: 3-4 hours	0.08	1.52	115
concentration: 200 (µM), S9 metabolic activation: without S9, exposure time: 24 hours	0.7	1.68	93.4

Nc1ccc(Cl)cc1N [4-Chloro-1,2-diaminobenzene]
Details	hypodiploid nuclei frequency, CHO-K1 [3] [%]	micronucleus frequency, CHO-K1 [2] [%]	relative survival, CHO-K1 [1]
concentration: 4.5 (µM), S9 metabolic activation: with S9, exposure time: 3-4 hours	0.46	1.12	85.5
concentration: 4.5 (µM), S9 metabolic activation: without S9, exposure time: 24 hours	3.24	1.06	106
concentration: 5.63 (µM), S9 metabolic activation: with S9, exposure time: 3-4 hours	0.3	1.06	92.5
concentration: 5.63 (µM), S9 metabolic activation: without S9, exposure time: 24 hours	1.58	1.2	90.1
concentration: 7.04 (µM), S9 metabolic activation: with S9, exposure time: 3-4 hours	0.34	1.54	91.9
concentration: 7.04 (µM), S9 metabolic activation: without S9, exposure time: 24 hours	1.32	1.36	109
concentration: 8.8 (µM), S9 metabolic activation: with S9, exposure time: 3-4 hours	0.52	1.24	87.2
concentration: 8.8 (µM), S9 metabolic activation: without S9, exposure time: 24 hours	0.84	1.3	102
concentration: 11 (µM), S9 metabolic activation: with S9, exposure time: 3-4 hours	0.32	1.08	90.4
concentration: 11 (µM), S9 metabolic activation: without S9, exposure time: 24 hours	1.14	1.3	105
concentration: 13.7 (µM), S9 metabolic activation: with S9, exposure time: 3-4 hours	0.46	0.86	91.1
concentration: 13.7 (µM), S9 metabolic activation: without S9, exposure time: 24 hours	1.02	1.74	98.4
concentration: 17.2 (µM), S9 metabolic activation: with S9, exposure time: 3-4 hours	0.66	0.9	95.8
concentration: 17.2 (µM), S9 metabolic activation: without S9, exposure time: 24 hours	1.18	1.54	102
concentration: 21.5 (µM), S9 metabolic activation: with S9, exposure time: 3-4 hours	0.4	0.8	108
concentration: 21.5 (µM), S9 metabolic activation: without S9, exposure time: 24 hours	1.02	1.82	104
concentration: 26.8 (µM), S9 metabolic activation: with S9, exposure time: 3-4 hours	0.2	1.06	95.8
concentration: 26.8 (µM), S9 metabolic activation: without S9, exposure time: 24 hours	1.88	1.48	123
concentration: 33.6 (µM), S9 metabolic activation: with S9, exposure time: 3-4 hours	0.3	1.08	97
concentration: 33.6 (µM), S9 metabolic activation: without S9, exposure time: 24 hours	1.96	1.8	117
concentration: 41.9 (µM), S9 metabolic activation: with S9, exposure time: 3-4 hours	0.24	1.46	91.4
concentration: 41.9 (µM), S9 metabolic activation: without S9, exposure time: 24 hours	5.8	1.7	115
concentration: 52.4 (µM), S9 metabolic activation: with S9, exposure time: 3-4 hours	0.28	0.96	98.5
concentration: 52.4 (µM), S9 metabolic activation: without S9, exposure time: 24 hours	1.38	1.24	120
concentration: 65.5 (µM), S9 metabolic activation: with S9, exposure time: 3-4 hours	0.36	1.4	96.7
concentration: 65.5 (µM), S9 metabolic activation: without S9, exposure time: 24 hours	1.62	1.78	109
concentration: 81.9 (µM), S9 metabolic activation: with S9, exposure time: 3-4 hours	0.54	1.58	113
concentration: 81.9 (µM), S9 metabolic activation: without S9, exposure time: 24 hours	1.42	1.5	123
concentration: 102 (µM), S9 metabolic activation: with S9, exposure time: 3-4 hours	0.4	1.1	95.5
concentration: 102 (µM), S9 metabolic activation: without S9, exposure time: 24 hours	1.7	1.72	112
concentration: 128 (µM), S9 metabolic activation: with S9, exposure time: 3-4 hours	0.86	1.58	98.2
concentration: 128 (µM), S9 metabolic activation: without S9, exposure time: 24 hours	1.94	1.9	114
concentration: 160 (µM), S9 metabolic activation: with S9, exposure time: 3-4 hours	1.5	1.4	95.8
concentration: 160 (µM), S9 metabolic activation: without S9, exposure time: 24 hours	2.1	2.16	122
concentration: 200 (µM), S9 metabolic activation: with S9, exposure time: 3-4 hours	1.52	1.6	89.1
concentration: 200 (µM), S9 metabolic activation: without S9, exposure time: 24 hours	2.84	2.38	100

CCC(C)c1cc([N+](=O)[O-])cc([N+](=O)[O-])c1O (configuration not stated) [Dinoseb]
Details	hypodiploid nuclei frequency, CHO-K1 [3] [%]	micronucleus frequency, CHO-K1 [2] [%]	relative survival, CHO-K1 [1]
concentration: 4.5 (µM), S9 metabolic activation: with S9, exposure time: 3-4 hours	0.14	1.48	102
concentration: 4.5 (µM), S9 metabolic activation: without S9, exposure time: 24 hours	0.68	1.56	112
concentration: 5.63 (µM), S9 metabolic activation: with S9, exposure time: 3-4 hours	0.36	1.72	110
concentration: 5.63 (µM), S9 metabolic activation: without S9, exposure time: 24 hours	0.68	2.12	109
concentration: 7.04 (µM), S9 metabolic activation: with S9, exposure time: 3-4 hours	0.38	1.78	115
concentration: 7.04 (µM), S9 metabolic activation: without S9, exposure time: 24 hours	0.7	1.62	111
concentration: 8.8 (µM), S9 metabolic activation: with S9, exposure time: 3-4 hours	0.32	1.36	108
concentration: 8.8 (µM), S9 metabolic activation: without S9, exposure time: 24 hours	0.7	2.38	101
concentration: 11 (µM), S9 metabolic activation: with S9, exposure time: 3-4 hours	0.3	1.6	115
concentration: 11 (µM), S9 metabolic activation: without S9, exposure time: 24 hours	0.86	1.9	106
concentration: 13.7 (µM), S9 metabolic activation: with S9, exposure time: 3-4 hours	0.2	1.36	111
concentration: 13.7 (µM), S9 metabolic activation: without S9, exposure time: 24 hours	0.96	1.6	102
concentration: 17.2 (µM), S9 metabolic activation: with S9, exposure time: 3-4 hours	0.2	1.26	121
concentration: 17.2 (µM), S9 metabolic activation: without S9, exposure time: 24 hours	0.8	1.84	101
concentration: 21.5 (µM), S9 metabolic activation: with S9, exposure time: 3-4 hours	0.28	1.26	99
concentration: 21.5 (µM), S9 metabolic activation: without S9, exposure time: 24 hours	1.04	2.04	101
concentration: 26.8 (µM), S9 metabolic activation: with S9, exposure time: 3-4 hours	0.28	0.94	85.6
concentration: 26.8 (µM), S9 metabolic activation: without S9, exposure time: 24 hours	1.44	1.78	94.1
concentration: 33.6 (µM), S9 metabolic activation: with S9, exposure time: 3-4 hours	0.18	0.88	97
concentration: 33.6 (µM), S9 metabolic activation: without S9, exposure time: 24 hours	2.38	1.92	81.6
concentration: 41.9 (µM), S9 metabolic activation: with S9, exposure time: 3-4 hours	0.2	0.88	91.7
concentration: 41.9 (µM), S9 metabolic activation: without S9, exposure time: 24 hours	1.76	1.74	53.2
concentration: 52.4 (µM), S9 metabolic activation: with S9, exposure time: 3-4 hours	0.18	1.22	83.5
concentration: 52.4 (µM), S9 metabolic activation: without S9, exposure time: 24 hours	1.54	2.98	55
concentration: 65.5 (µM), S9 metabolic activation: with S9, exposure time: 3-4 hours	0.22	0.96	92
concentration: 65.5 (µM), S9 metabolic activation: without S9, exposure time: 24 hours	1.66	3.16	59
concentration: 81.9 (µM), S9 metabolic activation: with S9, exposure time: 3-4 hours	0.24	1.68	93.3
concentration: 81.9 (µM), S9 metabolic activation: without S9, exposure time: 24 hours	1.26	2.86	53.1
concentration: 102 (µM), S9 metabolic activation: with S9, exposure time: 3-4 hours	0.22	1.52	98.8
concentration: 102 (µM), S9 metabolic activation: without S9, exposure time: 24 hours	1.28	2.96	47.4
concentration: 128 (µM), S9 metabolic activation: with S9, exposure time: 3-4 hours	0.12	1.06	92
concentration: 128 (µM), S9 metabolic activation: without S9, exposure time: 24 hours	–	–	39.7
concentration: 160 (µM), S9 metabolic activation: with S9, exposure time: 3-4 hours	0.24	1.24	92.9
concentration: 160 (µM), S9 metabolic activation: without S9, exposure time: 24 hours	0.9	2.14	46
concentration: 200 (µM), S9 metabolic activation: with S9, exposure time: 3-4 hours	0.2	1.08	72.6
concentration: 200 (µM), S9 metabolic activation: without S9, exposure time: 24 hours	0.63	2.6	41.5
